Source: PubChem BioAssay AID2676 (National Center for Advancing Translational Sciences (NCATS), 2010)
About 1,100 (0.3%) of roughly 370,000 compounds were called active. This list was built around the results that the source calls inconclusive (neither active nor inactive); the mix of calls is not that of the screen. Calls come from the whole dose curve; as a rule, active = well fitted activation curve with a large enough effect; inconclusive = small, poorly fitted or top-dose-only effect; inactive = flat fitted curve, though single readings scatter. Where the call is inconclusive, the potency comes from a doubtful curve fit.

target: Relaxin receptor 1 (Homo sapiens) (UniProt Q9HBX9); experiment: qHTS Assay for Agonists of the Relaxin Receptor RXFP1; settings: HEK293T-RXFP1 cAMP TR-FRET, 30 min; series mostly up to 57.5 µM; note: nearly all actives have a fitted effect of over 60% in size
Chain of UniProt Q9HBX9 (Q9HBX9 whole entry, looked up): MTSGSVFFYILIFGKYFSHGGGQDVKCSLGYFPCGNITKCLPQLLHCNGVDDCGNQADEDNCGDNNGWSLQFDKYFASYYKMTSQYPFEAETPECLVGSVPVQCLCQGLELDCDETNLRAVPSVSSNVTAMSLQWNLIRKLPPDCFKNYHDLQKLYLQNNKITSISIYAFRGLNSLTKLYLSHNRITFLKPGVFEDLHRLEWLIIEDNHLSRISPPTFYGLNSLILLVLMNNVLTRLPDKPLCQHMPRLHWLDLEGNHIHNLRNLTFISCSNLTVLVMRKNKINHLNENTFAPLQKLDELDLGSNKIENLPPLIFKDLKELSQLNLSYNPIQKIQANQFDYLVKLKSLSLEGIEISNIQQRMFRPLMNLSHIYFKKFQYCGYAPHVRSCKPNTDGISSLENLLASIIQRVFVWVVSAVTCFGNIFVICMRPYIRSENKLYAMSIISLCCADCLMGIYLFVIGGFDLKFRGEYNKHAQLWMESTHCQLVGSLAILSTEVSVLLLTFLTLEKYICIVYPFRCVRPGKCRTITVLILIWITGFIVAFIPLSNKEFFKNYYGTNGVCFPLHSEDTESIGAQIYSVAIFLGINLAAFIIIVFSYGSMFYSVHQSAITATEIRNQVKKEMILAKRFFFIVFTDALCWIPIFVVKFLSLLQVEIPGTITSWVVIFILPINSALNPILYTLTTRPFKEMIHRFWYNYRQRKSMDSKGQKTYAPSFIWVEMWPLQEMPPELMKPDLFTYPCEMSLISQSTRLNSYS
Description: NIH Chemical Genomics Center [NCGC] NIH Molecular Libraries Probe Production Centers Network [MLPCN] MLPCN Grant: R03 MH085705-01A1 Assay Submitter (PI): Alexander Agoulnik NCGC Assay Overview: The relaxin hormone is involved in the variety of biological functions in normal tissues and diseases. The role of relaxin is well-established in female reproduction and parturition, mammary gland and endometrial development, maintenance of myometrial quiescence during pregnancy. Relaxin signaling through its G protein-coupled receptor (GPCR) RXFP1 results in ECM remodeling through regulation of collagen deposition, cell invasiveness, proliferation and overall tissue homeostasis. […] Recombinant human relaxin (rhRlx) is currently being tested in clinical trials as a protective agent in congestive heart failure, in treating severe preeclampsia, and as an anti-fibrotic agent in systemic sclerosis. Upon relaxin binding RXFP1 activation leads to the activation of adenylate cyclase (AC) via Gs. cAMP will activate PKA, which phosphorylates many signaling proteins. Thus, detection of cAMP increase is an easy and reliable indication of relaxin receptor activation. To screen for agonists of the relaxin receptor, a HEK293T cell line stably transfected with RXFP1 was used. RXFP1 activation was assayed by changes in cAMP levels as detected with a time-resolved fluorescence energy transfer (TR-FRET) cAMP detection kit.
NCGC Assay Protocol Summary: This is a cell-based assay for cAMP second messenger response to screen for agonists of the RXFP1 receptor. The assay was conducted in the presence of a PDE4 inhibitor (Ro 20174). The cells were lysed and the cAMP levels were measured with a TR-FRET cAMP kit. Presence of cAMP in the cell lysate disrupts binding between the cryptate-labeled anti-cAMP and d2-labeled cAMP pair, leading to a decrease in the TR-FRET signal. Data were normalized to the controls for basal activity (buffer only) and 100% activity (29 nM porcine relaxin). The EC50 values were determined from concentration-response data modeled with the standard Hill equation 1536-well assay protocol for the HEK293 RXFP1 cAMP assay: (1) Add 3 ul HEK293 RXFP1 cell culture. 2000 cells/well in DMEM/F12, 10% FBS, 1x Pen/Strep (dispensed offline with MultiDrop Combi). (2) Incubate 16-24 hr at 37C, 5% CO2. (3) Add 1 ul 400uM Ro20174 in DPBS, 0.05% BSA, 0.005% Tween 20. (3) Add 23 nl compounds in DMSO solution. Final concentration was 0.5 - 58 uM. (4) Incubate 30 min at 37C, 5% CO2. (5) Add 1 ul cAMP-d2 in lysis buffer (HTRF cAMP HiRange kit, CisBio). (6) Add 1 ul anti-cAMP antibody-cryptate in lysis buffer (HTRF cAMP HiRange kit, CisBio). (7) Incubate 30 min at room temperature. (6) Detect the assay plate in a ViewLux plate reader (PerkinElmer) with Ex=320 nm, Em1=615 nm and Em2=665 nm. Keywords: relaxin, RXFP1, RXFP2, G-protein coupled receptor, cAMP, agonist, high throughput screening, MLSMR, MLSCN, NIH Roadmap, qHTS and NCGC
Potency is the fitted concentration of half-maximal effect; tags give direction and shape of the fitted curve.

SMILES	Potency
Cc1ccccc1CC1(CO)CCCN(C(=O)c2cc(Cl)ccc2F)C1 (stereo unspecified)	inconclusive: 25.1 µM [activator, partial curve]
COC(=O)Nc1nc2ccc(C(=O)c3ccc(F)cc3)cc2[nH]1	inconclusive: 25.1 µM [activator, single point]
COc1ccccc1C(=O)Nc1cccc(C(=O)OCc2cc(=O)n3nc(C4CC4)sc3n2)c1	inconclusive: 39.8 µM [activator, single point]
N#C/C(=C/c1ccc(OCc2ccccc2)cc1)C(=O)NC1CCCCC1	inconclusive: 6.31 µM [activator, single point]
COC(=O)Cc1c(C)c2c(O)cc(C)cc2oc1=O	active: 15.8 µM
Cc1nc(SCC(=O)NCCc2ccccc2)c2c(=O)n(C)c(=O)n(C)c2n1	inconclusive: 25.1 µM [activator, single point]
COc1cccc(N2CCN(c3ccc4nnc(CCC(=O)N5CCN(C)CC5)n4n3)CC2)c1	inconclusive: 20 µM [activator, partial curve]
COc1cc(NC(=O)CSc2ncc3c(n2)-c2ccc(Cl)cc2N(Cc2ccccc2)S3(=O)=O)cc(OC)c1	inconclusive: 6.31 µM [activator, single point]
O=C(N/N=C/c1ccccc1OCC(=O)N1CCCC1)C(=O)Nc1ccccc1F	inactive
CCOc1ccc(-c2cc(NC(=O)c3cccc(Cl)c3)c(C(=O)OC)s2)cc1	inconclusive: 22.4 µM [activator, single point]
COC(=O)CSc1nc2sc3c(c2c(=O)n1-c1ccc(C)cc1)CC(C(C)C)OC3 (stereo unspecified)	inconclusive: 35.5 µM [activator, single point]
CCOC(=O)CC(=O)CSc1nc(N)c(C#N)c(-c2ccc(Cl)cc2)c1C#N	inactive
CCOc1ccc(N(C)C(=O)CCc2nnc3ccc(N4CCC5(CC4)OCCO5)nn23)cc1	inconclusive: 20 µM [activator, partial curve]
Cc1ccc(CN(C(=O)COc2ccccc2[N+](=O)[O-])c2ccccn2)cc1	inconclusive: 39.8 µM [activator, single point]
O=C(Cn1ccn(-c2ccc(F)cc2)c(=O)c1=O)Nc1ccccc1C(F)(F)F	inconclusive: 28.2 µM [activator, single point]
CCc1ccc(NC(=O)CSc2ccc3nc(-c4ccc(OC)cc4)cn3n2)cc1	inconclusive: 39.8 µM [activator, single point]
Cc1ccc(-n2ncc3c(N(C)C)ncnc32)cc1Cl	inconclusive: 39.8 µM [activator, single point]
O=C(NCCCN1CCN(c2ccc(F)cc2)CC1)c1cc2c(Cl)nc3ccccc3c2s1	inconclusive: 39.8 µM [activator, single point]
O=C(Nc1nnc(S(=O)(=O)N2CCOCC2)s1)c1ccccc1Br	inconclusive: 22.4 µM [activator, partial curve]
Cc1ccc(NC(=O)CSc2ccc(C(N)=O)cc2[N+](=O)[O-])cc1C	inactive
CC(=O)Nc1ccc(S(=O)(=O)N2CCN(Cc3nc4sc(C)c(C)c4c(=O)[nH]3)CC2)cc1	inconclusive: 39.8 µM [activator, single point]

SMILES	Potency
Cc1cc(C)n(C(C)CC(=O)Nc2cccc(C#N)c2)n1 (stereo unspecified)	inactive
Cc1cccc(NC(=O)c2ccccc2OCC(=O)c2ccccc2)c1	inactive
O=C(C1=C(O)C(=O)N(CCN2CCOCC2)C1c1cccc(O)c1)c1cc2ccccc2o1 (stereo unspecified)	inconclusive: 25.1 µM [activator, partial curve]
COc1ccc(NC(=O)Cn2c(=O)n(CCC(C)C)c(=O)c3cccnc32)cc1Cl	inconclusive: 39.8 µM [activator, single point]
CCN(CC)S(=O)(=O)c1ccc(C(=O)NCCN2C(=O)S/C(=C\c3cccnc3)C2=O)cc1	inconclusive: 14.1 µM [activator, partial curve]
Cc1ccccc1Nc1cc(C(=O)NC2CCCC2)c2ccccc2n1	inconclusive: 39.8 µM [activator, single point]
CC(=O)c1cccc(NC(=O)C(C)OC(=O)c2ccc(-n3cnnn3)cc2)c1 (stereo unspecified)	inactive
CCN1CCN(c2cc(C)c3cc(NC(=S)N(C)Cc4ccccc4)ccc3n2)CC1	inactive
O=C(Cn1cnc2c(nnn2-c2ccccc2)c1=O)NCC1CCCO1 (stereo unspecified)	inconclusive: 12.6 µM [activator, partial curve]
Cc1cc2c(s1)c(C#N)c(C(=O)NCc1ccccc1F)n2C	inactive
CC(=O)c1cccc(NC(=O)c2sc(-n3nc(C)c(CCC(C)C)c3C)nc2C)c1	inconclusive: 39.8 µM [activator, single point]
C=CCn1c(SCC(=O)Nc2sccc2C#N)nc2sc(C)c(C)c2c1=O	inconclusive: 17.8 µM [activator, partial curve]
O=C(NCc1ccc(F)cc1)C1CCN(S(=O)(=O)c2ccc3c(c2)CCCN3C(=O)C2CCC2)CC1	inactive
Cc1ccc(CNc2nc3ccccc3n3nnnc23)cc1	inconclusive: 31.6 µM [activator, single point]
Cc1cccn2c(=O)c3cc(C(N)=S)c(=N)n(CCCN4CCOCC4)c3nc12	inconclusive: 20 µM [activator, partial curve]
CN(C(=O)CSC1=NC2C(N=N1)c1cc(Br)ccc1N2C)C1CCCCC1 (stereo unspecified)	inconclusive: 31.6 µM [activator, single point]
CC(C)n1c(SCC(=O)N2CCN(C(=O)c3ccco3)CC2)nc2c1c(=O)n(C)c(=O)n2C	active: 14.1 µM
CCCCCn1c(=O)[nH]c2cc(C(=O)NCc3ccc(Cl)cc3)ccc2c1=O	inconclusive: 25.1 µM [activator, partial curve]
COc1cc(C(=O)Nc2nc3ccc(C)cc3s2)ccc1OCc1c(C)noc1C	inconclusive: 35.5 µM [activator, single point]
C=CCOc1cccc(C2/C(=C(/O)c3ccc4c(c3)CC(C)O4)C(=O)C(=O)N2CCN2CCOCC2)c1 (stereo unspecified)	inconclusive: 20 µM [activator, partial curve]
